# Source: PubChem BioAssay AID686978 (National Center for Advancing Translational Sciences (NCATS), 2013)
# “And” between values parts separate entries of the source, which are not always exact repeats. Identical values can stand only once. The whole screen tested about 420,000 compounds, of which about 64,000 (15%) were called active. Inconclusive results, whose numbers are uncertain, are shown with a selection of clear calls. Calls follow the shape of the dose curve; as a rule, active = well fitted inhibition curve with a large enough effect; inconclusive = small, poorly fitted or top-dose-only effect; inactive = flat fitted curve, though single readings scatter. Potencies of inconclusive entries are left out as doubtful fits.
# Assay: qHTS for Inhibitors of human tyrosyl-DNA phosphodiesterase 1 (TDP1): qHTS in cells in absence of CPT; also: nearly all actives have a fitted effect of over 55% in size
# Conditions: DT40 Tdp1-/- hTDP1 cells, no CPT, ATP luminescence, 48 h; activity change, negative = growth inhibition: at 46.2 µM (top of the series) unless noted
# In short: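 No-CPT arm: Tdp1-/-;hTDP1 DT40 cells (400/well) plus compounds, incubated ≥48 hr at 37 °C. Readout CellTiter-Glo luminescence.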
# % is scaled to controls: 0 for no effect and ±100 for the full control effect; potency is read from the fitted curve at half-maximal effect; tags tell the direction and shape of the fitted curve.
SMILES,Potency,"activity change, negative = growth inhibition"
CCOC(=O)C1(C#N)C(=O)CSC1=Nc1ccccc1Cl (stereo not given),"inconclusive [inhibitor, single point]",–
CCOc1cccc(CC(=O)N2CCc3c([nH]c4ccccc34)C2c2ccc(OC)cc2)c1OCC (stereo not given),"inconclusive [inhibitor, single point]",–
COc1ccc(NC(=O)c2ccccn2)cc1S(=O)(=O)N1CCOCC1,"inconclusive [inhibitor, full curve, poor fit]",–
CNC(=O)/C(C#N)=C/c1cc(C)n(-c2ccc(N3CCOCC3)cc2)c1C,"inconclusive [inhibitor, full curve]",–
COc1ccc(C2C(C(=O)Nc3cc(OC)c(OC)c(OC)c3)c3ccccc3C(=O)N2C)cc1 (stereo not given),active: 1.84 µM,–
CCOC(=O)[C@]12CCC=C1N(Cc1ccccc1)C(=O)[C@H](CC(=O)NCC13CC4CC(CC(C4)C1)C3)C2,"inconclusive [inhibitor, single point]",–
CCCn1nnnc1NCc1ccc(Cl)cc1Cl,"inconclusive [inhibitor, partial curve, poor fit]",–
COC(=O)[C@@]1(C)[C@H]2C(=O)N(Cc3ccccc3)C(=O)[C@H]2[C@H]2CN=C(SCc3ccc(C#N)cc3)N21,"inconclusive [inhibitor, single point]",–
Cc1ccccc1CN1C(=O)c2ccccc2S(=O)c2ccc(C(=O)NCc3ccccc3)cc21 (stereo not given),"inconclusive [inhibitor, single point]",–
CCOC(=O)C1=C(C)N=c2sc(=C(C)C)c(=O)n2C1c1ccc(N(C)C)cc1 (stereo not given),"inconclusive [inhibitor, single point]",–
CCCOc1cc(C)c(S(=O)(=O)n2ccc(C)n2)cc1C,"inconclusive [inhibitor, single point]",–
COc1ccc(-c2c(C)nn3c(C(F)(F)F)cc(C)nc23)cc1OC,"inconclusive [inhibitor, single point]",–
COc1cccc(NC(=O)COc2cccnc2[N+](=O)[O-])c1,–,inconclusive: -30.1% [inhibitor]
C/C(=N\NC(=O)C(N)=O)c1ccc2c(c1)OCCO2,–,inactive: 3.69%
COc1cccc(CNCCCSc2nnnn2C)c1,–,inactive: -6.73%
Cn1nccc1CNC(=O)c1ccnn1C,–,inactive: 8.62%
Cc1ccc(NC(=O)c2cccc(S(=O)(=O)NCc3ccccc3)c2)nc1,"inconclusive [inhibitor, single point]",–
CSc1nnc(-c2ccncc2)n1CCCN1CCCC1=O,–,inactive: -13.2%
CC(NC(=O)C1CCCN1S(=O)(=O)c1cccc2cccnc12)c1ccccc1 (stereo not given),"inconclusive [inhibitor, single point]",–
O=C(c1cc(-c2ccc(Cl)cc2)on1)N(Cc1ccc(F)cc1)Cc1ccco1,active: 20.6 µM,–
NC(=Nc1ccc(Br)cc1)c1ccccc1,"inconclusive [inhibitor, single point]",–
O=C(NCc1ccco1)Nc1cccc(-c2ccccc2)c1,"inconclusive [inhibitor, partial curve]",–

SMILES,Potency,"activity change, negative = growth inhibition"
Cc1nn(C)c2c1c(-c1ccccc1)cc(=O)n2Cc1c(F)cccc1Cl,"inconclusive [inhibitor, single point]",–
NC(=O)C1=C[C@@H](c2ccc(C(F)(F)F)cc2)C[C@@H](OCCCCO)O1,–,inactive: 10.3%
CC1(C)CC(=O)C2=C(C1)Nc1[nH]c(=S)[nH]c(=O)c1C2c1ccccc1 (stereo not given),"inconclusive [inhibitor, full curve]",–
CCn1c(=NC(=O)c2ccc(N3C(=O)CCC3=O)cc2)sc2c(OC)ccc(OC)c21,"inconclusive [inhibitor, single point]",–
CC1CN(c2nc3ccccc3nc2SCC(=O)Nc2cccc(C(F)(F)F)c2)CC(C)O1 (stereo not given),active: 25.9 µM,–
O=c1cc2oc3cc(O)c(O)cc3c(-c3ccccc3[N+](=O)[O-])c-2cc1O,active: 23.1 µM,–
CC(=O)C12CCCCC1CC1C3CC(C)C4(O)CC(=O)CCC4(C)C3CCC12C (stereo not given),"inconclusive [inhibitor, single point]",–
CC(=O)N1Cc2cc(C(=O)NCC(F)(F)F)nc(-c3cccc(-c4cc5ccccc5o4)c3)c2[C@@H]1CCO,"inconclusive [inhibitor, single point]",–
COc1cc(C(=O)Nc2ccc(N(C)C)cc2)cc(OC)c1OC,"inconclusive [inhibitor, single point]",–
CCOc1ccc(N(CC(=O)Nc2ccc3c(c2)OCO3)S(=O)(=O)c2ccccc2)cc1,"inconclusive [inhibitor, partial curve]",–
O=C1c2oc3ccccc3c(=O)c2C(c2cccc(O)c2)N1Cc1ccc(F)cc1 (stereo not given),active: 20.6 µM,–
Cc1cc(N2CCOCC2)nc(SCc2ccc(Cl)cc2Cl)n1,"inconclusive [inhibitor, single point]",–
Cc1cccc(NC(=O)CCCCCN2C(=O)[C@@H]3Cc4ccccc4CN3C2=O)c1,"inconclusive [inhibitor, single point]",–
COCCN(Cc1ccc(C)cc1)C(=O)[C@H]1O[C@@H](n2cnc3c(N)ncnc32)[C@H](O)[C@@H]1O,–,inactive: 12.8%
COc1ccccc1N(Cc1ccccc1)S(=O)(=O)c1cccc(C(=O)Nc2ccc(C(C)=O)cc2)c1,"inconclusive [inhibitor, single point]",–
COc1ccc(Nc2ccccc2N)cc1,active: 20.6 µM,–
COc1ccccc1-c1noc(CCC(=O)Nc2cccc(C)c2)n1,"inconclusive [inhibitor, single point]",–
N#Cc1c(-c2ccccc2F)cc(C2CC2)nc1SCC(=O)c1cccs1,active: 18.4 µM,–
CSc1ncccc1C(=O)NNC(=O)c1ccc(NS(=O)(=O)c2cccs2)cc1,–,inactive: 8.69%
C=CCn1c(-c2cc(-c3ccccc3)sc2N)n[nH]c1=S,"inconclusive [inhibitor, single point]",–
CCn1c(=N)n(CC(=O)c2ccc(OC)cc2)c2ccccc21,"inconclusive [inhibitor, single point]",–
COc1ccc(CCN2C(=O)c3cccc4c(C(=O)N5CCCCC5)ccc(c34)C2=O)cc1OC,"inconclusive [inhibitor, single point]",–

SMILES,Potency,"activity change, negative = growth inhibition"
CCOC(=O)c1ccccc1NC(=O)CSC(C)C(=O)Nc1cc(C)on1 (stereo not given),"inconclusive [inhibitor, single point]",–
O=C(COc1ccc(S(=O)(=O)N2CCCC2)cc1Cl)N1CCN(c2ccccc2)CC1,"inconclusive [inhibitor, partial curve]",–
Clc1ccccc1-c1cc2nc(NCc3ccco3)ccn2n1,"inconclusive [inhibitor, single point]",–
COc1ccc(N(C(=O)c2ccc(C)cc2)S(=O)(=O)c2ccc(Cl)cc2)cc1,"inconclusive [inhibitor, partial curve]",–
NC(=O)c1c(NC(=O)c2ccccc2F)sc2c1CCCC2,"inconclusive [inhibitor, single point]",–
CCOc1ccc(N(Cc2cc3cc(C)ccc3[nH]c2=O)S(=O)(=O)c2ccccc2)cc1,"inconclusive [inhibitor, single point]",–
CC(=O)c1ccc(NC(=S)N2CCN(C(=S)Nc3ccc(C(C)=O)cc3)C(C)C2)cc1 (stereo not given),"inconclusive [inhibitor, full curve]",–
CCN(CC)c1nc2nonc2nc1N(CC)CC,–,inconclusive: -38.2% [inhibitor]
COc1ccc(C2c3c(-c4cc(Cl)c(C)cc4O)n[nH]c3C(=O)N2Cc2cccnc2)cc1OC (stereo not given),"inconclusive [inhibitor, partial curve]",–
O=C(Nc1ccc(Cl)cc1)c1nc[nH]c1C(=O)NCCCCNC(=O)c1[nH]cnc1C(=O)Nc1ccc(Cl)cc1,active: 4.61 µM,–
O=C1CN(C(=O)c2ccc(S(=O)(=O)N3CCCC3)cc2)C(c2ccc(F)cc2)c2cc(F)ccc2N1 (stereo not given),"inconclusive [inhibitor, single point]",–
COc1ccc(Br)cc1C(=O)Nc1cc(C)cc(C)c1,"inconclusive [inhibitor, partial curve]",–
COc1ccccc1NC(=O)C(CC(C)C)NC(=O)C1CCCCC1 (stereo not given),"inconclusive [inhibitor, partial curve]",–
CCc1ccc(NS(=O)(=O)c2ccc3[nH]cc(C(=O)N4CCCCCC4)c(=O)c3c2)cc1,–,inactive: -13.1%
COc1ccc(/C=C\C(=O)c2c(O)ccc3c(C)cc(=O)oc23)cc1OC,active: 11.2 µM and active: 23.1 µM,–
CCCOc1c(Br)cc(/C=N/O)cc1OC,"inconclusive [inhibitor, single point]",–
O=C(O)CCCNS(=O)(=O)c1cccc2nsnc12,–,inactive: -1.17%
Cc1cccc(/C=C2/SC(=O)N(Cc3ccccc3Cl)C2=O)n1,"inconclusive [inhibitor, partial curve]",–
CCOc1cc(CNCCc2c[nH]c3ccccc23)cc(Cl)c1OCC(N)=O,"inconclusive [inhibitor, partial curve]",–
O=C(CN1CCCN(Cc2ccc(F)cc2Cl)C1=O)NC1CCCCCCC1,"inconclusive [inhibitor, single point]",–
COc1cc(C2C(C(=O)Nc3ccc(C)cc3C)=C(C)Nc3nc(SCc4ccccc4)nn32)cc(OC)c1OC (stereo not given),active: 23.1 µM,–
